In the supplement of paper PMC3334620:
Whole data set: some 33,000 sequences, median “E-score (-0.5 to 0.5)” near -0.041, cut for the highest 2% near 0.37. The list shows a part of the results.

target: T1, Ecm22 (UniProt Q05958); test: PBM E-score (8-mer binding enrichment) (E-score (-0.5 to 0.5)); higher = stronger / more preferred TF binding; most listed sequences are background and not binding sites; conditions: protein concentration: 200 nM; construct: GST-full length
T1 sequence: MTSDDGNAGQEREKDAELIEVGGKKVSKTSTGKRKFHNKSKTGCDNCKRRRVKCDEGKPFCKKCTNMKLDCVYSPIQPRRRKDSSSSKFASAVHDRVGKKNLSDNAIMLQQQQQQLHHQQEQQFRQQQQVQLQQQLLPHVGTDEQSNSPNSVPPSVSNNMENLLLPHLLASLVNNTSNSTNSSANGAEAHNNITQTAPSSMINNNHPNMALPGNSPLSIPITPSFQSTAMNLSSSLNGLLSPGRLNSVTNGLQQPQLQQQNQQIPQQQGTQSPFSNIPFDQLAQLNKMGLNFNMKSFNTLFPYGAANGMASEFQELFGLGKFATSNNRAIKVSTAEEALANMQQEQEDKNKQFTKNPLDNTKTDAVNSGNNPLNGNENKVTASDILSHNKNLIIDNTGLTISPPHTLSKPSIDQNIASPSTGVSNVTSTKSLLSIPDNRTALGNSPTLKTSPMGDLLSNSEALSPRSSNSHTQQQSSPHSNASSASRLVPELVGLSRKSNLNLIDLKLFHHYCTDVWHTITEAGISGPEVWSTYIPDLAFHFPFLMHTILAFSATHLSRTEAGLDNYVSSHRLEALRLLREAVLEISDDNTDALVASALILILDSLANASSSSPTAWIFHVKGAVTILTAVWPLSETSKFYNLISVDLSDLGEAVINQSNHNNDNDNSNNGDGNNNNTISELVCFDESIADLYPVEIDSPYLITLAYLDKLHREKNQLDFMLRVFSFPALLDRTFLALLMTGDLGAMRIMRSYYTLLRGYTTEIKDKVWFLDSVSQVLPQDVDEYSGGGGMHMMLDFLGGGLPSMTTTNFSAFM
Method in brief: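 Each ungapped eight-base word and its reverse complement, pooled, received an E-score from the Universal PBM Analysis Suite. Underlying scans, normalised with masliner, recorded fluorescent anti-GST bound to GST-tagged yeast transcription factors. These were applied at about 100-200 nM to universal all-10-mer Agilent arrays double-stranded by primer extension.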

| Sequence | PBM E-score |
| --- | --- |
| AACGCATT | 0.0189 |
| AGTCATCA | -0.149 |
| ATCGACTC | 0.0508 |
| CGTCGCAG | 0.126 |
| AGCCCAAC | -0.147 |
| GGACATTA | -0.088 |
| GGATGGTA | -0.0324 |
| ACGTAACC | 0.0905 |
| CCCGGTGA | -0.206 |
| CAATGATG | -0.141 |
| TGACCGAA | 0.203 |
| ATGGGTAG | -0.0273 |
| CATAAGAC | 0.00296 |
| AAACCAAA | 0.0602 |
| ACTGTAAA | -0.0485 |
| GAACTTGC | -0.0845 |
| CTTCGATA | 0.121 |
| GAGGATTA | -0.0868 |
| GCCGACAC | -0.17 |
| ACCCGGAG | 0.114 |
| GCAGCACA | -0.197 |
| GGCAGTAA | -0.0106 |
| CGGGGGTA | -0.11 |
| AGTGTGCC | -0.185 |
| CCCGAAAA | 0.0691 |

| Sequence | PBM E-score |
| --- | --- |
| AATGCTGT | -0.155 |
| CACGCTTA | -0.00771 |
| AGGCTAAT | -0.00957 |
| CATGTACC | -0.118 |
| GCCTGCCA | -0.285 |
| CCAAAACC | 0.021 |
| AGCCAGCC | -0.0617 |
| GTCAACAA | -0.0801 |
| AAATAGTA | 0.0746 |
| ACTGTCTG | -0.221 |
| GGTCACCA | -0.156 |
| CCGTACTC | 0.224 |
| CTATCGAG | 0.014 |
| ACCAACAT | 0.0381 |
| CTGTGTAC | 0.236 |
| AGTTATCG | 0.218 |
| AAGCTAAT | 0.0924 |
| CGTGGGGC | -0.213 |
| GCCGCCTA | -0.348 |
| CAGGTGAA | -0.0473 |
| CAGATCCA | -0.2 |
| CCAGCGAA | -0.112 |
| AAAGGGCC | -0.338 |
| CTGGGAAG | -0.0875 |
| ATTGGCGC | -0.0775 |

| Sequence | PBM E-score |
| --- | --- |
| CAAATGTC | -0.088 |
| TCATTTCA | -0.0478 |
| CTGAGAAC | 0.093 |
| GGGGTATA | -0.185 |
| GGACAAAA | -0.0932 |
| CGGCATTC | -0.0261 |
| AGCCCACA | -0.193 |
| ACATGGAC | -0.199 |
| ATGCACCC | -0.058 |
| CACTCGAC | -0.0826 |
| TAATCTCA | 0.05 |
| GCTTGCAA | -0.091 |
| ACGGGCTA | 0.0937 |
| CTTCTGAA | -0.201 |
| ATAGGTAG | -0.151 |
| AAGTTAAA | -0.0767 |
| ACATGGCG | -0.0545 |
| CCGCGACG | 0.0789 |
| AAAAAGAG | -0.158 |
| CGGGACGA | 0.00175 |
| ACTTAAGC | 0.0561 |
| GGAATGGA | -0.258 |
| CCAGGGCC | -0.354 |
| AAGTCCAG | -0.111 |
| GCGAATAA | 0.153 |

| Sequence | PBM E-score |
| --- | --- |
| AGACCGAG | 0.155 |
| ACGATAAG | 0.193 |
| AATTCTAC | 0.0698 |
| TAGAGCGA | 0.211 |
| TACGAAAA | 0.423 |
| ACTAAAAC | -0.0475 |
| AGCTGTCC | -0.207 |
| AGAGTTTG | -0.119 |
| TACGCCTA | -0.0425 |
| GGGTGTCA | -0.183 |
| AATAATGC | 0.202 |
| CGGCAACA | 0.00962 |
| CCCCGACC | -0.0419 |
| AAACCTGC | -0.0823 |
| CGTCACCA | -0.137 |
| GTTCGCCA | 0.067 |
| GCCCGCAA | -0.0102 |
| AAAGGACT | -0.209 |
| ACGTTTCG | 0.247 |
| ACAGATAT | 0.0648 |
| AAACTAAG | -0.0282 |
| CATCAAAA | 0.0123 |
| GAATAGGA | 0.0429 |
| ATCATCAT | 0.0455 |
| CGGAGCAA | -0.163 |

| Sequence | PBM E-score |
| --- | --- |
| CTCTTACA | -0.19 |
| CGGATCTA | 0.0938 |
| ACTCCCGC | -0.0572 |
| ACACGCCA | -0.00397 |
| ATGTAAAC | 0.199 |
| CACCCTCC | -0.114 |
| CAAAACAC | -0.184 |
| TAACTACA | 0.00782 |
| CTGCGCAA | 0.0516 |
| CGATCCGA | 0.294 |
| ACGTAGAG | -0.0231 |
| CTGTATGA | -0.0474 |
| AACGAGCT | 0.445 |
| AAACCTTC | -0.172 |
| CCCGACTC | 0.119 |
| ATGAACTG | -0.0086 |
| AGTGGAAG | -0.206 |
| CCTCAGCG | -0.0433 |
| GATTGTTA | 0.0402 |
| CCAGTAGC | -0.0364 |
| ACTCCCAC | -0.108 |
| GATGGCCA | -0.163 |
| TGATACAA | -0.102 |
| GTGCGTTA | 0.103 |
| ACCATTCT | -0.262 |

| Sequence | PBM E-score |
| --- | --- |
| CACCCTGA | -0.319 |
| GACAGGAA | -0.00773 |
| AGTATCCA | 0.031 |
| ATCAAGAA | -0.0539 |
| AAGATGAA | -0.1 |
| ACCCCTAT | -0.0517 |
| CGACCTGC | -0.0223 |
| GTCAACGA | 0.2 |
| CAGTGTGA | -0.0937 |
| CGATGTGC | 0.107 |
| TAACGCCA | 0.0183 |
| TGATTACA | -0.0514 |
| AGCTACTG | -0.0991 |
| ATGCCTAG | -0.204 |
| CAACCTCC | -0.219 |
| ACTACCAG | -0.0954 |
| AGTCATGG | -0.179 |
| CGTGTGGC | -0.0896 |
| CTCACACC | -0.171 |
| AATAAAGT | -0.101 |
| AGAGAATG | 0.0385 |
| TCTATCAA | -0.273 |
| GCTATGCC | -0.186 |
| CCCTGCTA | -0.179 |
| ATCGCCAA | -0.229 |

| Sequence | PBM E-score |
| --- | --- |
| GGGTCGCA | 0.183 |
| ACCATGCG | 0.035 |
| CATTGGTA | -0.116 |
| ATGTCCTC | 4e-05 |
| CGCCTATC | -0.00033 |
| GCTCTTGA | -0.244 |
| ACGACTAG | 0.194 |
| CGCCCGCC | 0.00795 |
| CACGACGC | 0.119 |
| CATGGCGC | -0.137 |
| ACGGGGCG | 0.214 |
| ATCCATTA | -0.00138 |
| AGATTTGC | -0.0658 |
| CGCATCCG | 0.0561 |
| ATACATCG | 0.0771 |
| AACGCATG | 0.151 |
| AGTGCAGA | -0.0276 |
| AACAAGTT | -0.0507 |
| AGGTCGTA | 0.458 |
| ACTCCTCA | -0.116 |
| AAAACCGC | -0.0889 |
| AGTACAGC | -0.113 |
